Data as given in PMC9574860, “Chemical Toolkit for PARK7: Potent, Selective, and High-Throughput” (Journal of Medicinal Chemistry, 2022).
In all, about 7,900 compounds went through this assay and about 400 (5.1%) showed an effect of 50% or more. The list shows a part of the results.

Target: Parkinson's disease protein 7 (PARK7/DJ1) (human, UniProt Q99497)
Assay: primary screen, percent inhibition; read as competition with a fluorescent probe by fluorescence polarization; higher = more effect of the substance
Conditions: 100 µM
Method in brief: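 Fluorescence-polarization probe displacement (JYQ-107, 20 nM final, 2 h) after 2 h preincubation of PARK7 (0.2 μM final) with each fragment at 100 μM final. Read-out ex/em 480/520 nm; remaining activity derived from FP signal loss relative to reference controls.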

Sequence of Parkinson's disease protein 7 (PARK7/DJ1) (Q99497 whole entry, looked up): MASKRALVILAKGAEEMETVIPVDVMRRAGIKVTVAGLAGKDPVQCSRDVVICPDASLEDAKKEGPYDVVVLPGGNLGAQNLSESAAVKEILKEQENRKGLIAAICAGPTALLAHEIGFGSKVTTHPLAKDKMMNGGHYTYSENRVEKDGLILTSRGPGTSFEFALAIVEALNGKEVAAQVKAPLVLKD

Compound | Inhibition %
CN1C2CCC1CC(Nc1cccnc1C#N)C2 (centres unmarked) | 5.48%
C=CC(=O)N(CC)C1CCS(=O)(=O)C1 (centres unmarked) | -4.06%
C#CC(=O)Nc1cc2ccccc2cc1C(=O)O | 29.8%
CCc1[nH]nc(NC(=O)c2cccnc2S)c1C | 3.97%
O=C(CCl)Nc1ccc(F)c(F)c1F | 32.8%
CCOc1ccc(S(=O)(=O)n2ccc(C)n2)cc1C | 2.71%
Cc1cc(C)n(S(=O)(=O)c2ccc(C)c(C)c2)n1 | 3.92%
CC(C)OCCCn1c(S)nc2ccccc2c1=O | 3.79%
Cc1cc(NC(=O)CCl)on1 | 21.5%
CN(Cc1cc(F)c(F)c(F)c1)c1nccnc1C#N | 13.9%
c1nsnc1OCC1CO1 (centres unmarked) | 8.09%
N#CC(=Cc1ccc(O)cc1)C(=O)N1CCCC1 | 9.17%
Cc1cc(-n2c(C)cc(C=C(C#N)C(=O)O)c2C)no1 | 7.71%
OB(O)c1ccc(OCC2CCCCO2)cc1 (centres unmarked) | 27.9%
C=CC(=O)Nc1cnc2onc(C)c2c1 | 10.7%
CC1CN(C(=O)CN2CCSC2=O)CCO1 (centres unmarked) | 0.792%
C=CC(=O)Nc1ccc(C2CC2)nn1 | 9.64%
Cc1csc(C(C#N)=Cc2cccc3c2OCCCO3)n1 | 1.3%
Cc1n[nH]c(C)c1B1OC(C)(C)C(C)(C)O1 | 4.89%
CN(CC(=O)O)S(=O)(=O)C=Cc1ccccc1 | -4.62%
C=CC(=O)N(C)CC(=O)Nc1cc(C)on1 | 7.52%
CC(C)NC(=O)C(C#N)=Cc1ccccc1 | 10.9%
O=S(=O)(F)CCc1ccccc1 | 4.21%
CN1Cc2cc(C(=O)CCl)ccc2NC1=O | 11.5%
CCC(=O)N1CCCN(c2ccc(C#N)nc2)CC1 | -4.41%

Compound | Inhibition %
O=C(CCl)c1ccc(F)c(Cl)c1 | 99.2%
Cc1cc(C)n(-c2ccc(B3OC(C)(C)C(C)(C)O3)cc2)n1 | 10.1%
C=CC(=O)N1CCC(N2CCS(=O)(=O)CC2)CC1 | 13.1%
CC1(C)OB(c2ccc(C#N)s2)OC1(C)C | 6.33%
COc1ccccc1NS(=O)(=O)C=Cc1ccccc1 | 7.7%
C=CC(=O)N1CCCc2cc(F)ccc21 | 16.1%
O=C(CCl)c1ccc(NC(=O)c2ccco2)cc1 | 90.6%
Cc1nnc(NC(=O)CN2CCSC2=O)s1 | 3.04%
CC1(C)OB(c2cccc(-n3ccnn3)c2)OC1(C)C | 6.79%
CCc1cccc(N(C#N)CC(=O)N2CCNC(=O)C2)c1 | -1.16%
C=CC(=O)NC(C)(C)c1noc(C(C)(C)C)n1 | 17.1%
CC(=O)N(c1cccc(Cl)c1)C1C=CS(=O)(=O)C1 (centres unmarked) | 14.6%
Cc1nn(C)c(Cl)c1C=CC(=O)N1CCNC(C)C1.Cl (centres unmarked) | 11%
O=C(Nc1nccs1)Oc1ccccc1 | -1.32%
C=CC(=O)N1C[C@@H]2[C@@H](COC)[C@@H]2C1 | 5.89%
O=C1Cc2cc(C(=O)CCl)ccc2N1 | 81.4%
CC(C)C1NC(=O)C12CCCC2 (centres unmarked) | 5.46%
C=CC(=O)N(C)C1CCCOC1 (centres unmarked) | 13%
COc1ccc(NC(=O)CCl)cc1OC | 17.1%
NC(=O)CSc1ccccc1NC(=O)CCl | 9.99%
C=CC(=O)N1CC2(CC2)c2ccccc21 | 6.78%
N#CC=C1SCC(=O)N1CC(O)c1ccc(Cl)cc1 (centres unmarked) | 6.45%
C=CC(=O)NC1CCCc2c1cnn2Cc1ccccc1 (centres unmarked) | 12.5%
CC(C)NC(=O)C(C#N)=Cc1ccccc1Cl | 6.2%
C=CC(=O)NC1CCC(=O)NC12CCC2 (centres unmarked) | 7%

Compound | Inhibition %
O=C(N[C@H]1CC[C@H](CO)CC1)c1cccnc1S | 5.7%
Cc1ncc(CN(C)S(=O)(=O)C=Cc2ccccc2)s1 | 9.84%
Cn1c(N)c(C(=O)CCl)c(=O)n(C)c1=O | 30.7%
CC(NC(=O)CCl)C1CC1 (centres unmarked) | 4.02%
CC1CCN(C(=O)NCCN2C(=O)CCC2=O)CC1 | 0.99%
N#CC(C(N)=O)=C1CCCCC1 | 1.53%
CC(C)CN1CCN(c2ccc(C#N)nc2)CC1 | 2.57%
CCOc1cc(S(=O)(=O)n2cccn2)c(C)cc1C | 0.108%
O=C(CCl)NCCc1ccccc1 | 17.9%
N#CSc1ccc(NC(=O)CCl)c(Cl)c1 | 55.8%
O=C1CCC(CN2CCc3[nH]c4ccc(F)cc4c3C2)O1 (centres unmarked) | 21.1%
COC(=O)c1c(NC(=O)CCl)sc(C)c1C | 10.8%
Cc1nc2ccccn2c(=O)c1CCCl | 3.99%
COCC(C)NC(=O)C(C#N)=Cc1cccc(C)c1C (centres unmarked) | 4.67%
C=CC(=O)NCC1SCCS1 | 6.16%
Cc1cc(Cn2nc(-c3ccc(F)cc3)oc2=O)no1 | 10.2%
O=c1ccc2cc(S(=O)(=O)OCC(F)(F)F)ccc2o1 | 6.17%
CC(C)CN1C(=O)CN=C1S | 1.24%
C=CC(=O)NC1CCCc2c1cnn2C (centres unmarked) | 6.84%
CCNC(=O)C(C)n1c(S)nc2ccccc2c1=O (centres unmarked) | 3.38%
CCCn1nc(C)c(B2OC(C)(C)C(C)(C)O2)c1C | 39.4%
CC(C)=C(F)C(=O)NS(=O)(=O)C=Cc1ccccc1 | 3.73%
Cn1ccnc1C(=O)CCl | 32.3%
N#Cc1ncn(CCC(=O)Nc2ccc(F)c(F)c2)n1 | 7.31%
O=C(N1CCCCC1)n1nnc2ccccc21 | 5.5%

Compound | Inhibition %
CCc1nc(C#N)c(NCc2ccc(F)cc2)o1 | 7.03%
c1cc2ccc(OCC3CO3)cc2[nH]1 (centres unmarked) | 5.75%
CN(C)C(=O)n1nccc1N | 10.8%
C=CC(=O)N1CCSSCC1 | 12.4%
C=CC(=O)N1CCNC(=O)C1c1ccccc1F (centres unmarked) | 4.97%
CCOc1ccc(C)cc1S(=O)(=O)n1ccc(C)n1 | 3.57%
N#CC1COCCN1C(=O)c1cccc(S(=O)(=O)F)c1 (centres unmarked) | 93.6%
O=S(=O)(C=Cc1ccccc1)N1CCSCC1CO (centres unmarked) | 6.38%
Cn1cc(S(=O)(=O)Oc2cccc(F)c2)c(=O)n(C)c1=O | 5.3%
N#Cc1nccnc1N1CCCC2(CCCCC2)C1 | 4.04%
C=CC(=O)N1CCC(CS(C)(=O)=O)C1 (centres unmarked) | 4.28%
C=CC(=O)N1CCOCC1C1CCCO1 (centres unmarked) | 11.4%
O=C(c1ccc(Cl)cc1)N1CCCCC(Cl)C1=O (centres unmarked) | 4.28%
Cc1cc(C=C(C#N)C(=O)NC(C)C)c(C)n1C1CC1 | 0.489%
O=C(CCl)Nc1cccc2ncccc12 | 40.3%
N#Cc1ccc(NS(=O)(=O)C=Cc2ccc(Cl)cc2)nc1 | 9.02%
C#CC(=O)N1CC(O)C1 | 7.33%
N#Cc1ncn(Cc2csc(C3CCCCC3)n2)n1 | 3.68%
C=CC(=O)N1CCN(CCc2cccs2)CC1 | -1.19%
CC1(C)OB(c2[nH]ncc2C(F)(F)F)OC1(C)C | 11.9%
CC(C1CC1)N(Cc1ccccc1)C(=O)CCl (centres unmarked) | 5.01%
C=CC(=O)N1CC(Cc2cccc(C)c2)C1 | 6.59%
CC(C)CN(C(=O)CCl)C1CCS(=O)(=O)C1 (centres unmarked) | 5.54%
N#CC(=Cc1ccc(N)cc1)C(N)=O | 8.09%
C=CC(=O)NCC1CCN(c2ccccc2)C1 (centres unmarked) | 9.18%

Compound | Inhibition %
O=c1onc(-c2ccccc2)n1CC1CO1 (centres unmarked) | 2.46%
CC1CCCCC1OCCNC(=O)CCl (centres unmarked) | 6.68%
Cc1ccc(C#N)nc1C | 2.28%
C=CC(=O)N1CCCCC1c1ccc(C(=O)NC)n1C (centres unmarked) | 8.51%
O=C1CCC(=O)N1CCCl | 1.08%
O=C(O)Cc1ccccc1CS | 89.6%
N#Cc1ncn(CC(=O)c2cccc(C(F)(F)F)c2)n1 | 4.15%
O=C(CCl)Nc1ccn(Cc2ccccc2)n1 | 15.4%
CCc1nn(C)c(CC)c1CNC(=O)c1cccnc1S | 4.52%
O=C1OCCC1Sc1nnc(-c2cccs2)o1 (centres unmarked) | 21.8%
N#CC(=Cc1cccc(-c2ccccc2F)c1)C(N)=O | 10.5%
C=CC(=O)N(C)Cc1cc2ccccc2o1 | 5.57%
Cc1csc(C(C#N)=Cc2ccc(O)cc2)n1 | -25.7%
CN(C)Cc1ccc(B2OC(C)(C)C(C)(C)O2)cc1.Cl | 5.78%
CSCc1cccc(B2OC(C)(C)C(C)(C)O2)c1 | -1.56%
Cc1nc2ccc(NC(=O)CN3CCSC3=O)cc2s1 | 8.16%
O=C(O)CN1CCSC1=O | 6.49%
N#CC=C(N)c1ccccc1 | 13.9%
O=C(NC1CCc2[nH]ncc2C1)c1cccnc1S (centres unmarked) | 7.8%
Cc1nc(C)c(C=C(C#N)C(=O)NC(C)C)o1 | 3.38%
Cc1ccc(F)c(N(C#N)CCN2CCCS2(=O)=O)c1 | 6.92%
CS(=O)(=O)N1CCN(C(=O)CCl)CC1 | 2.41%
NCC1CCN(C(=O)C=Cc2cncc(F)c2)C1 (centres unmarked) | 7.15%
C=CC(=O)NC(C)c1nnc(C)[nH]1 (centres unmarked) | 3.25%
COc1cccc(C2CCCN2C(=O)CCl)c1 (centres unmarked) | 2.56%
